± gives the standard deviation of the averaged measurements. This is one part of the list.
What follows are sequences tested on PfAP2-EXP AP2 domain (GST-tagged) (assay: gcPBM binding intensity (ln(normalized median fluorescence intensity)); higher = stronger DNA binding).
Procedure, shortened: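 Using an Agilent 4 × 180k array, primer-extended double-stranded 36-bp intergenic genomic probes and negative controls were exposed for 1 h to GST-fused P. falciparum DNA-binding domains expressed in E. coli. Binding was carried out in 1× PBS with 1% milk, 0.2 mg/ml BSA, 0.5% salmon testes DNA and 0.03% Triton X-100, and protein was detected with Alexa488 anti-GST antibody and a 488 nm scan. Binding intensity is the highest Masliner-normalised natural-log median intensity across replicate spots of either probe orientation.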

Sequence	gcPBM binding intensity (ln)
TTGTTTTTTTTTTCTATAAGCATAAAAATGATATAA [XGTACX_negctrl_site356]	8.12 ± 0.42
TTTCTGTGTTTTGGTTGTACACACGCTACATTATAT [XGTACX_site5669]	9.35 ± 0.58
TAAAACAATACTTTGTGCTTCTCTGGTTTTTTTTTT [GTGCAC_negctrl_site284]	8.5 ± 0.49
GCTTTTAAAATAATTGGTACACATGTATAAATTCAA [XGTACX_site2327]	8.6 ± 0.22
AGTATTCACTTAATATGTACATATTTATTATAAGAG [XGTACX_site3434]	8.56 ± 0.35
TTTTATTTCTTTGCACCATTTTAAATACAAACAAAT [CACACA_negctrl_site1553]	9.075 ± 0.035
TTTTGCCTTTCTACTTGTACTTAAAATATTATAATT [XGTACX_site5483]	9.13 ± 0.52
TGGTATATAAAACACACACACATATGTATTTATATA [CACACA_site4665]	8.54 ± 0.38
CAAAAGCGATACGGCACACATTTCCTGTTTAAATGA [CACACA_site5519]	8.61 ± 0.27
TTAATTTTTAGAAGAACACACACATATATATTATGA [CACACA_site7969]	8.37 ± 0.51
AAATTGATTATAAATTGTACAAGAACATACAACCTT [XGTACX_site5986]	8.36 ± 0.4
TCATATAGATTATACACACACATATATAGATATATA [CACACA_site6587]	8.38 ± 0.28
TTATATTTCAATTAAACATGCATTTTTGTGTAGCAC [TGCATGCA_site214]	9.1 ± 0.13
TTATATATTTTATTATTTATAATCTTTTTTTTATTT [CACACA_negctrl_site112]	8.29 ± 0.32
CATTTTTTAATAATAGCACACAGGACATACAAAACA [CACACA_site1245]	9.06 ± 0.4
ACAGTATCTGGTAGCTGTACGAGTCGTAGAGTGTAG [XGTACX_site2011]	8.98 ± 0.45
AATATATAAATAAATATATAAATAAATAATTGAAGC [CACACA_negctrl_site348]	8.73 ± 0.45
TTCATTAATGTGTAATGTACTTGTAATATGGGATTA [XGTACX_site3903]	8.49 ± 0.31
AAAATATAAAGTATTTGTACATAATATATTTTTAAA [XGTACX_site3494]	8.13 ± 0.38
TGTTCTCTTCTTTTTTATTTTCCAAAGTAATAAGTT [TGCATGCA_negctrl_site424]	8.78 ± 0.4
TATATATATTTATATGCATGTAATATATTTGTATTG [TGCATGCA_site323]	8.71 ± 0.3
AGAAAAAAGAGGGATACACACAAACATATATATATA [CACACA_site5269]	9.91 ± 0.28
CATAAATCAGCCATAACACACATACATAAATACATA [CACACA_site4380]	8.6 ± 0.45

Sequence	gcPBM binding intensity (ln)
TTAATTATAATTATATGTACGAACTTTTTTTTTTTT [XGTACX_site6586]	8.29 ± 0.39
TAAATAAGTATTACTAGTACACACAAGTTGTTAATC [XGTACX_site7074]	8.57 ± 0.28
AATTATTTTATGAAAAGTACACATTGTTTTAATTCT [XGTACX_site4506]	8.38 ± 0.34
ATAGAATATTTTATTACACACAGAATAATAAAAAAT [CACACA_site6190]	8.46 ± 0.46
CTAAAAGGATGATGAATGCACTATTATTTATATGGA	8.35 ± 0.21
TTATTTTTTTTAGCATATACAAATATATATATATAT [GTGCAC_negctrl_site4]	9.96 ± 0.23
AAGAATTATTTTTTATGTACTTATATGTCAATTTTC [XGTACX_site6676]	8.56 ± 0.42
GAAGGAAATAAATCAACACACATATATTATATATAT [CACACA_site2188]	8.77 ± 0.11
TGTATTTATTAATGTACACACATGCGTATGTTCGTT [CACACA_site5892]	8.82 ± 0.4
TATATAATATATTTATGTACGTATTTAAAAATTTAT [XGTACX_site160]	8.53 ± 0.26
CATAAATATTTGTGTTGTACAAATATATATATTTAT [XGTACX_site7363]	8.51 ± 0.3
TGAAATTTGTTATATGCATGTAAAATATTACGACGA [TGCATGCA_site201]	8.79 ± 0.36
TTGTGTGAGCAAGTAGTGCATAATATAAATAAAAAA [GTGCAC_site9802]	9.12 ± 0.14
AAAATTGAAGGTAGAAGTACATATTTATTTCAATAA [XGTACX_site8732]	8.51 ± 0.44
ATTGTGGATATTCTTACACACAAATTTATATATAAA [CACACA_site2601]	8.37 ± 0.49
ATATTCTAAATAAAGGGTACACAAAAATAATTAAAG [XGTACX_site5529]	8.88 ± 0.47
TTATGAATACTTCAAGTGCATTTATTTTATATGACA	8.48 ± 0.27
TTTTGTATATTATATGTACACACAATAAGTTAATAT [CACACA_site8207]	8.54 ± 0.28
TATTTGTAATATTATACACACATTATGTATTACAAA [CACACA_site3386]	8.56 ± 0.38
ATATATATATAAAGCAGTACACACATTTATTTTAGA [XGTACX_site7226]	9.71 ± 0.12
TATGAACTTTTGGGGGTGCCTTAAAATGTATATTCT	9.43 ± 0.42
TATCAAAGTAGAAGAGATCGATGTCATATTGTGATG [GTGCAC_negctrl_site42]	8.84 ± 0.53
TCCCAATTTATTATGTGTACTTATTATATACATATA [XGTACX_site4033]	8.71 ± 0.26

Sequence	gcPBM binding intensity (ln)
CACAGACACGGACACACACACATATATATATATATA [CACACA_site5248]	10.2 ± 0.26
AACAAAATAGGGAACACACACATGTCGATATATAAA [CACACA_site7265]	8.91 ± 0.35
ATAATATGAAGAAGCACACTCAATTAAATACAGATA [CACACA_site4690]	8.61 ± 0.56
ATACACACATATATGTGTACATATACATATATATAT [XGTACX_site6744]	9.53 ± 0.32
AACATCAAAATATGCACACAAACAATTAGCGGTAGT [CACACA_site2521]	8.94 ± 0.35
AAAAAAAAAGACAAAAGTACAAAGGTTCATAATTTA [XGTACX_site3978]	8.5 ± 0.55
ATATTTTATTTTTAAAGTACAAAAGAAAAGAATAAT [XGTACX_site8247]	8.67 ± 0.52
GATTTACATTTTGATGAAAATAATAAAATGTGGAAA [TGCATGCA_negctrl_site409]	8.54 ± 0.42
AAAAAAAAAAAAAAAACATGCAGTTAGTGGTTTTTT [TGCATGCA_site243]	9.01 ± 0.56
AATAAATGGAAAAGGTGTACACAAAAAAAAGGGAAA [XGTACX_site4956]	9.26 ± 0.57
CTTATATTTGGACACACACACAATAAAATGAAAAAA [CACACA_site6614]	8.94 ± 0.45
AAATCTTCATAATAAAGTACTTAACTCTTGGTGTTA [XGTACX_site6112]	8.3 ± 0.46
TACACAAGAAAATTCACACACACACCGATATATATA [CACACA_site6008]	8.78 ± 0.33
GAAATGGGTAAACATACACACACACCGATATATATA [CACACA_site8610]	8.89 ± 0.4
AAAAATTTCTATTTTTGTACTTACTTTTTAGTAATA [XGTACX_site5236]	8.19 ± 0.27
TAACAATTATGCTGGTGTACGTTTGAAATTGGGTAT [XGTACX_site6846]	8.73 ± 0.28
AAAAAACAAAAAAATACACACATAAAAAGGTTTTAG [CACACA_site3584]	8.63 ± 0.54
TAAACATAACAAAGGAGTACAAAACTTGATCAGTTC [XGTACX_site3114]	8.87 ± 0.55
TTATAAGATGATTATAAAATCAAATTCATTCTTTTA [CACACA_negctrl_site1338]	7.84 ± 0.45
AAATATGTCAAATATACACACATAATAAATATAATA [CACACA_site2310]	8.44 ± 0.41
TATGTATAAAAATAATGTACAAAATATATTATATGT [XGTACX_site2794]	8.69 ± 0.33
ATCTTAGTTGAAATATAGAATTTATAATAAAAGTTA [GTGCAC_negctrl_site122]	8.09 ± 0.47
ATACTATAATAATACACACTCATTAGATATATAAAG [CACACA_site7787]	8.37 ± 0.3

Sequence	gcPBM binding intensity (ln)
TGTACAAATATGTACACACACACATATTTATTTATA [CACACA_site6419]	8.48 ± 0.15
ACGAAAAGATATATATGTACATATATTAAAAAAAAA [XGTACX_site1517]	8.69 ± 0.35
TTAATTAAATATAGGGGTACATATTATATATGTTTT [XGTACX_site3677]	8.74 ± 0.54
AATATGGGCATACATGTGCACTTTTTCCCGTGGTTT	8.81 ± 0.2
AAGAAATTTATTTATTGTACAATATATAATTTGTTT [XGTACX_site2478]	8.4 ± 0.49
AAATATTTCTGCAAGGTGCACTTTATAAATCTTTGA	9.95 ± 1.4
TTATATGCATATTTTTGTACACAACATTGTTGTATA [XGTACX_site8707]	8.95 ± 0.38
ATGTATATTTTTATGTGTACGTAATAAAACATAATA [XGTACX_site7777]	8.62 ± 0.014
TTATTTTTTTTTAGAGCACACATTTTTAATAAGGTA [CACACA_site2133]	8.38 ± 0.19
TATAAATTTGTTCAATGTACATGTAAAGATATAATC [XGTACX_site371]	8.81 ± 0.29
TGAAGCAAAAACAAAACACACATATAAATAAATAAA [CACACA_site3925]	8.72 ± 0.43
TTATTTTTTATAAAATGTACATATATTTTAAATATA [XGTACX_site4026]	8.41 ± 0.29
ACCAATCCAAAAGAATGTACCCATGTTTTAAAATAT [XGTACX_site2907]	8.49 ± 0.28
TTTTGTTAACATATAGAAAAGAACAAAGTTAAAAAG [XGTACX_negctrl_site462]	8.73 ± 0.48
TTCGTATGCATGAAATGTACATGATATTATTATAAA [XGTACX_site4542]	8.55 ± 0.37
GAAAAAAAAATACATACACACAATATATTTATTTAT [CACACA_site3124]	8.32 ± 0.4
TATTATATATAATATTGTACATTAAAATATTAAAGA [XGTACX_site3698]	8.42 ± 0.33
ATATGTATTAAGTGTACACATATAATGGGTTTTCTT [CACACA_site5328]	8.71 ± 0.27
GGAACGTTCATATTTCCACACACAAAAAATAAATAT [CACACA_site9101]	8.62 ± 0.61
TTTATTTTAAAATATAGTACGCAAATAAAAATAAAT [XGTACX_site7783]	8.99 ± 0.4

From the supplement of paper PMC11417369
